Results reported in PubChem BioAssay AID485364 (National Center for Advancing Translational Sciences (NCATS), 2010).
About 11,000 (3.1%) of roughly 360,000 compounds were called active. Inconclusive means that the source gave no clear call. Such entries were picked first, then a sample of the others. Calls come from the whole dose curve; as a rule, active = well fitted inhibition curve with a large enough effect; inconclusive = small, poorly fitted or top-dose-only effect; inactive = no such curve, though single readings can be large or run the other way. Potencies of inconclusive entries are left out as doubtful fits.

These compounds were tested against Schistosoma mansoni thioredoxin glutathione reductase (TGR) (UniProt Q962Y6) (assay: qHTS Assay for the Inhibitors of Schistosoma Mansoni Peroxiredoxins). Conditions: purified TGR, DTNB reduction, TNB absorbance 405 nm; activity change, negative = inhibition: at 114 µM (top of the series) unless noted.
How it was run: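 TGR 20 nM + NADPH 100 uM (dispensed conc.), cpd preinc 15 min RT; start with NADPH (500 uM addition) then DTNB (15 mM addition). Kinetic TNB absorbance, 405 nm filter. Four-parameter Hill fit across titration.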
% is set by controls: 0 for no effect and ±100 for the full control effect; potency is the fitted concentration of half-maximal effect; tags give direction and shape of the fitted curve.
Note: nearly all actives have a fitted effect of over 60% in size.

Question: `CCOC(=O)c1c(-c2ccccc2)csc1NC(=O)CSc1nnc(C)s1` was tested. Which “activity change, negative = inhibition” value did it give?
Answer: inactive: -14.6%

Question: How did the Potency turn out when `O=C(C(Cc1ccccc1)n1cccc1)N1CCCCCC1` (stereo unspecified) was run?
Answer: inconclusive [inhibitor, partial curve]

Question: With `CCn1c(C)cc(/C=C2\NC(=O)N(Cc3ccccc3)C2=O)c1C` as the compound, how does the Potency read?
Answer: inconclusive [inhibitor, single point]

Question: For `O=C(O)CC/C(=N\Nc1ccccc1[N+](=O)[O-])c1cccs1`, which “activity change, negative = inhibition” value is on record?
Answer: inactive: 3.3%

Question: How did the “activity change, negative = inhibition” value turn out when `CSc1nc(Nc2ccc(C)cc2C)cc(-c2ccccc2)n1` was run?
Answer: inactive: 3.39%

Question: `CC(C)c1ccc(C2C(C(=O)c3ccco3)=C(O)C(=O)N2CCN2CCOCC2)cc1` (stereo unspecified) was tested. Which Potency did it give?
Answer: inconclusive [inhibitor, partial curve]

Question: With `COC(=O)c1cc2c(cc1NC(=O)c1cnn(-c3ccccc3)c1-n1cccc1)OCO2` as the compound, how does the “activity change, negative = inhibition” value read?
Answer: inactive: 1.15%

Question: How did the Potency turn out when `O=c1c2ccccc2nnn1CSc1nnc2sc3ccccc3n12` was run?
Answer: inconclusive [inhibitor, partial curve]

Question: For `Cc1nc(NC(=O)COC(=O)C(NC(=O)c2ccco2)C(C)C)c(Cl)cc1Cl` (stereo unspecified), which Potency is on record?
Answer: active: 31.6 µM

Question: `Cc1ccc(/C=C2\SC(=S)N(CC3CCCO3)C2=O)o1` (stereo unspecified) was tested. Which Potency did it give?
Answer: active: 3.98 µM

Question: How did the Potency turn out when `O=C(NN=C1CCCCCCC1)C(=O)NC1CCCCC1` was run?
Answer: inconclusive [inhibitor, single point]

Question: Which Potency does the source give for `CCC(=O)NC(c1ccco1)c1cc(Br)c2cccnc2c1O` (stereo unspecified) here?
Answer: active: 35.5 µM

Question: With `O=C(CN(c1ccc(Cl)cc1)S(=O)(=O)c1ccc(Cl)c([N+](=O)[O-])c1)NCCc1ccc(F)cc1` as the compound, how does the Potency read?
Answer: inconclusive [inhibitor, partial curve]

Question: How did the “activity change, negative = inhibition” value turn out when `O=C(CSc1nc(=O)n(CCN2CCOCC2)c2c1CCC2)Nc1ccc(OC(F)(F)F)cc1` was run?
Answer: inactive: 1.42%

Question: How did the Potency turn out when `CCN1CCN(C2=C(NS(=O)(=O)c3ccc(Br)cc3)C(=O)c3ccccc3C2=O)CC1` was run?
Answer: active: 44.7 µM

Question: With `CCOc1ccc(CCNC(=O)c2c(C)oc3ncn(CC(C)C)c(=O)c23)cc1` as the compound, how does the “activity change, negative = inhibition” value read?
Answer: inactive: 5.94%

Question: Which Potency does the source give for `Cc1cccc(CS(=O)(=O)Cc2ccc(C(=O)NCc3ccccc3)o2)c1` here?
Answer: active: 44.7 µM

Question: How did the Potency turn out when `CCN(c1ccc(NC(=O)COC(=O)c2cccs2)cc1)C(C)C` was run?
Answer: inconclusive [inhibitor, single point]

Question: `CCN(C(=O)c1cc2c(=O)oc3ccccc3c2s1)c1ccc(C)c(C)c1` was tested. Which “activity change, negative = inhibition” value did it give?
Answer: inactive: -5.31%

Question: Which Potency does the source give for `O=C(Nc1nc2ccccc2c(=O)s1)c1ccco1` here?
Answer: inconclusive [inhibitor, full curve]

Question: Which Potency does the source give for `CCN(CC)C(=O)c1nc[nH]c1C(=O)N(C)Cc1ccccc1` here?
Answer: inconclusive [inhibitor, partial curve]

Question: How did the Potency turn out when `Cc1noc2c1C(c1ccc(N(C)C)cc1)C1=C(CC(C)(C)CC1=O)N2` (stereo unspecified) was run?
Answer: inconclusive [inhibitor, full curve, poor fit]

Question: `CN1CCc2c(C#N)c(Cl)nc(Cl)c2C1` was tested. Which Potency did it give?
Answer: active: 31.6 µM

Question: Which Potency does the source give for `COc1cccc(NC(=O)NNC(=O)CCc2ccc(O)c(O)c2)c1` here?
Answer: inconclusive [inhibitor, partial curve, poor fit]

Question: How did the Potency turn out when `O=C(CSc1nnc(Cc2ccccc2)n1Cc1ccco1)NC1CCCC1` was run?
Answer: inconclusive [inhibitor, partial curve]

Question: How did the Potency turn out when `CC(c1ccccc1)N1CCC(CNC(=S)Nc2cccc(Cl)c2)C1` (stereo unspecified) was run?
Answer: inconclusive [inhibitor, partial curve]

Question: How did the “activity change, negative = inhibition” value turn out when `O=C(O)c1cccc(Cn2c(Cl)c(/C=N/NC(=O)c3cccc(O)c3)sc2=O)c1` was run?
Answer: inactive: 9.31%

Question: For `CCN1C(=O)[C@H]2[C@@H](c3ccc(-c4ccc(OC)cc4)cc3)N[C@@](CC(C)C)(C(=O)OC)[C@H]2C1=O`, which Potency is on record?
Answer: inconclusive [inhibitor, single point]

Question: How did the Potency turn out when `O=C(c1ccc(Br)cc1)c1cc2ccc(O)cc2oc1=O` was run?
Answer: active: 35.5 µM

Question: `O=C(C1=C(O)C(=O)N(CCN2CCOCC2)C1c1cccc(O)c1)c1cc2ccccc2o1` (stereo unspecified) was tested. Which Potency did it give?
Answer: inconclusive [inhibitor, partial curve]

Question: `Cc1ccc(SCC(=O)Nc2ccccc2C(=O)O)cc1` was tested. Which Potency did it give?
Answer: inconclusive [inhibitor, partial curve, poor fit]

Question: With `c1ccc(-c2nnc(-c3ccco3)n2-c2ccccc2)cc1` as the compound, how does the Potency read?
Answer: inconclusive [inhibitor, partial curve]

Question: With `O=C(NC(Cc1ccccc1)C(=O)O)/C(=C\c1ccco1)NC(=O)c1ccc(Br)cc1` (stereo unspecified) as the compound, how does the Potency read?
Answer: inconclusive [inhibitor, partial curve]

Question: How did the Potency turn out when `Cc1oc(-c2ccc(Cl)cc2)nc1CS(=O)CC(=O)NCc1cccs1` (stereo unspecified) was run?
Answer: inconclusive [inhibitor, single point]

Question: How did the Potency turn out when `CCCc1[nH]nc2c1C(c1ccccc1OC)C(C#N)=C(N)O2` (stereo unspecified) was run?
Answer: inconclusive [inhibitor, full curve]

Question: `COc1ccc(N(Cc2cc(=O)[nH]c3ccccc23)C(=O)c2ccco2)cc1` was tested. Which Potency did it give?
Answer: active: 31.6 µM

Question: How did the “activity change, negative = inhibition” value turn out when `COc1ccc(CC(=O)N2CCCC2)c(OC)c1` was run?
Answer: inactive: -3.67%

Question: Which Potency does the source give for `Cc1cc(O)c(C(c2ccccc2)N2CCN(c3ccccc3)CC2)c(=O)n1Cc1ccco1` (stereo unspecified) here?
Answer: active: 3.16 µM

Question: How did the Potency turn out when `NCCCn1c(C(=O)c2cc(Cl)c(N)c(Cl)c2)c2ccc(C(F)(F)F)cc2[n+]1[O-]` was run?
Answer: active: 44.7 µM

Question: With `S=C(Nc1cccc(Cl)c1)Nc1cccc2cnccc12` as the compound, how does the Potency read?
Answer: active: 25.1 µM

Question: Which “activity change, negative = inhibition” value does the source give for `COc1ccc(CC(=O)NCc2ccccn2)cc1OC` here?
Answer: inactive: 5.29%

Question: With `CC(=O)Nc1ccc(S(=O)(=O)N2CCN(Cc3nc4sc(C)c(C)c4c(=O)[nH]3)CC2)cc1` as the compound, how does the Potency read?
Answer: inconclusive [inhibitor, partial curve]

Question: `C=CCn1c(N)c(C(=O)N2CCOCC2)sc1=S` was tested. Which Potency did it give?
Answer: inconclusive [inhibitor, single point]

Question: For `CC[C@]1(c2ccccc2)C(=O)N(C(=O)OC)N1C(=O)OC`, which Potency is on record?
Answer: active: 2.24 µM

Question: For `CC(C)c1nnc(NC(=O)CCN2C(=O)c3ccccc3C2=O)s1`, which Potency is on record?
Answer: inconclusive [inhibitor, single point]

Question: `COC(=O)c1cc(NC(=S)NC(=O)c2ccccc2)ccc1N1CCOCC1` was tested. Which Potency did it give?
Answer: active: 25.1 µM

Question: `Cc1ccc(CN(C(=O)c2sc3ccccc3c2Cl)C2CCS(=O)(=O)C2)cc1` (stereo unspecified) was tested. Which Potency did it give?
Answer: inconclusive [inhibitor, partial curve]

Question: For `COc1cccc(-c2nnc(SCC(=O)N(C)c3ccccc3)o2)c1`, which “activity change, negative = inhibition” value is on record?
Answer: inactive: 7.47%

Question: With `Oc1ccccc1/C=N/c1c(-c2ccco2)nc2ccccn12` as the compound, how does the Potency read?
Answer: active: 50.1 µM

Question: With `CN1/C(=C/C2CC(=O)N(c3cccc4ccccc34)C2=O)C(C)(C)c2ccccc21` (stereo unspecified) as the compound, how does the Potency read?
Answer: inconclusive [inhibitor, partial curve]

Question: How did the Potency turn out when `O=C(CSc1nc2ccccc2s1)NC(=O)NCc1ccco1` was run?
Answer: inconclusive [inhibitor, partial curve]

Question: How did the Potency turn out when `CCN(CC)c1ccc(NS(=O)(=O)c2cc(-c3onc(C)c3C)ccc2OC)c(C)c1` was run?
Answer: inconclusive [inhibitor, full curve, poor fit]

Question: Which Potency does the source give for `Cc1cc(S(=O)(=O)NCCCN2CCOCC2)c(C)cc1Cl` here?
Answer: inconclusive [inhibitor, partial curve]

Question: Which Potency does the source give for `O=C(O)c1cc([N+](=O)[O-])c(Sc2nc3ccccc3[nH]2)c([N+](=O)[O-])c1` here?
Answer: active: 1.78 µM

Question: `C#CCNc1ccncc1S(=O)(=O)NC(=O)NC(C)C` was tested. Which Potency did it give?
Answer: active: 22.4 µM

Question: With `CCc1cccc(C)c1NC(=O)CCCn1c(C)c2cnn(-c3ccccc3)c(=O)c2c1C` as the compound, how does the Potency read?
Answer: inconclusive [inhibitor, partial curve]

Question: How did the “activity change, negative = inhibition” value turn out when `O=C(c1ccco1)N1CCN(S(=O)(=O)c2ccc(Oc3ccccc3)cc2)CC1` was run?
Answer: inactive: 16.2%

Question: `CCOc1ccccc1CN1CCNC(=O)C1CC(=O)NC1CCCCCC1` (stereo unspecified) was tested. Which Potency did it give?
Answer: inconclusive [inhibitor, partial curve]

Question: With `O=C(O)c1cccc(Nc2ccc3nonc3c2[N+](=O)[O-])c1` as the compound, how does the Potency read?
Answer: inconclusive [inhibitor, full curve, poor fit]

Question: How did the Potency turn out when `CC(=O)Nc1ccc(CN2CCN(Cc3ccc(F)c(F)c3)C(CCO)C2)cc1` (stereo unspecified) was run?
Answer: active: 20 µM

Question: How did the Potency turn out when `O=[N+]([O-])c1cccc(-c2c(-c3ccccc3)ncc3ccc(F)cc23)c1` was run?
Answer: inconclusive [inhibitor, partial curve]

Question: `COc1ccccc1CNCC(=O)NCc1ccc(C)cc1` was tested. Which Potency did it give?
Answer: inconclusive [inhibitor, partial curve]

Question: For `CC(OC(=O)CCOc1ccccc1)C(=O)Nc1ccc(Cl)cn1` (stereo unspecified), which Potency is on record?
Answer: inconclusive [inhibitor, single point]

Question: For `Cc1nc(NS(=O)(=O)c2ccccc2)sc1NC(=O)OC(C)C`, which Potency is on record?
Answer: inconclusive [inhibitor, partial curve]

Question: With `CN1CCN(c2cc(=O)n(-c3ccc(Cl)cc3)c(=O)[nH]2)CC1` as the compound, how does the Potency read?
Answer: inconclusive [inhibitor, full curve]

Question: Which Potency does the source give for `COc1ccccc1NC(=O)CN1C(=O)CCS(=O)(=O)c2ccccc21` here?
Answer: inconclusive [inhibitor, partial curve, poor fit]

Question: Which “activity change, negative = inhibition” value does the source give for `C=CCN(C(=O)c1oc2c(Cl)cc(C)cc2c1C)C1CCS(=O)(=O)C1` (stereo unspecified) here?
Answer: inactive: -0.424%

Question: Which “activity change, negative = inhibition” value does the source give for `N#C/C(=C\C=C\c1ccccc1)C(=O)N1CCCC1` here?
Answer: inactive: -13.8%

Question: How did the Potency turn out when `O=C(Nc1nnc(C2=COCCO2)o1)c1ccc([N+](=O)[O-])s1` was run?
Answer: inconclusive [inhibitor, partial curve]

Question: How did the Potency turn out when `COC/C=C/C1=CC2=CC(=O)C(C)(OC(=O)c3cnc4ccccc4n3)C(=O)C2=CN1CCCOC(C)C` (stereo unspecified) was run?
Answer: inconclusive [inhibitor, partial curve]

Question: `Cc1ccc(-n2nc(C)c3c2OC(N)=C(C#N)C3c2ccco2)cc1` (stereo unspecified) was tested. Which Potency did it give?
Answer: active: 39.8 µM
